Results: PubChem BioAssay AID1671188 (National Center for Advancing Translational Sciences (NCATS), 2021)
About 250 (0.25%) of roughly 100,000 compounds were called active. Inconclusive means that the source gave no clear call. Such entries were picked first, then a sample of the others. The call rests on the fitted dose curve; in most records, active means well fitted inhibition curve with a large enough effect; inconclusive means small, poorly fitted or top-dose-only effect; inactive means flat fitted curve, though single readings scatter. No potency is given beside an inconclusive call; the fits are too rough.

target: Alanine aminotransferase 2 (Homo sapiens) (UniProt Q8TD30); assay: Primary qHTS assay for inhibitors of Glutamate pyruvate transaminase 2 (GPT2); details: Recombinant GPT2, coupled pyruvate oxidase/HRP Amplex Red fluorescence; series mostly up to 57.7 µM; further: nearly all actives have a fitted effect of over 60% in size
Chain of UniProt Q8TD30 (Q8TD30 whole entry, looked up): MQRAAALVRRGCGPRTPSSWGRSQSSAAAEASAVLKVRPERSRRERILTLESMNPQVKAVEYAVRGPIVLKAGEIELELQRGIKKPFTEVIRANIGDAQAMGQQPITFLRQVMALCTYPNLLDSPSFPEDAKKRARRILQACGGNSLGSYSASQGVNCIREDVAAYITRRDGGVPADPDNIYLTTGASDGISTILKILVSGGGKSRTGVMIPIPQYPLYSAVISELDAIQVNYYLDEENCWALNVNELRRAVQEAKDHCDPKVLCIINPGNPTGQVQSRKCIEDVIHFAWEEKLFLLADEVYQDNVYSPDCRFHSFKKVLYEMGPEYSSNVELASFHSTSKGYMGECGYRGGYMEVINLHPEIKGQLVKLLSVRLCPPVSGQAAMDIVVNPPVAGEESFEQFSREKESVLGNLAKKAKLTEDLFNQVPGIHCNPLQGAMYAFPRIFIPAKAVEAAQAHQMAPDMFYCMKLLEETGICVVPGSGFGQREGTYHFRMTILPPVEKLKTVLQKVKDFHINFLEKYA
Outline: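 Fluorescence read-out: pyruvate from GPT2 turnover coupled to pyruvate oxidase, HRP and Amplex Red (0.2mM ThPP, 0.2U/mL PO and HRP, 50uM Amplex final). Substrates 250uM a-KG, 2mM L-alanine; enzyme 10ng/uL; 30 min RT.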
Potency means the concentration at half of the fitted maximal effect; tags describe the fitted curve by direction and shape.

Structure (SMILES) | Potency
Cc1nc2scc(CC(=O)NC(C)C)n2c(=O)c1-c1cc(C)n(-c2ccc(C(C)C)cc2)n1 | inconclusive [inhibitor, full curve, poor fit]
COc1ccc(C(=O)NC2CCN(c3cc(-c4ccc(F)cc4)[nH]n3)C2)cc1 (stereo not drawn) | inconclusive [inhibitor, partial curve]
CC(C)NC(=O)[C@@H]1C[C@@H](NC(=O)c2cnc3c(O)cccn3c2=O)CN1C | inconclusive [inhibitor, single point]
COCCCNC(=O)c1ccc(CN2C(=O)NC3(CCS(=O)(=O)CC3)C2=O)cc1 | inconclusive [inhibitor, single point]
COCCOCc1nc(C2CCCCN2C(=O)NC(C)C)no1 (stereo not drawn) | inconclusive [inhibitor, single point]
Cn1cc(CN2Cc3c(cc(N4CCOCC4)nc3-c3cccnc3)C2=O)cn1 | inactive
O=C(c1ccc(C(F)(F)F)cc1)N1CCCC2(CC(c3cccnc3)=NO2)C1 (stereo not drawn) | inconclusive [inhibitor, full curve, poor fit]
CC(C)(C)NS(=O)(=O)c1ccc(-c2ccc3[nH]nc(N)c3c2)cc1 | inconclusive [inhibitor, partial curve, poor fit]
COc1ccc(NC(=O)c2ccc3c(c2)N(S(C)(=O)=O)CC3)cc1Cl | inconclusive [inhibitor, single point]
Cc1nc(-c2ccc(F)cc2)n(CC(=O)NCc2ccc(F)cc2)c(=O)c1CCO | inconclusive [inhibitor, single point]
O=C(c1ccccn1)N1CCC(Cc2ccc(COc3ccncc3)cc2)CC1 | inactive
O=C(NC1CC1)C1(F)CCN(S(=O)(=O)c2ccccc2)CC1 | inconclusive [inhibitor, single point]
CN1CCN(c2ccc(C(=O)Nc3n[nH]c4ccc(Cc5cc(F)cc(F)c5)cc34)c(NC3CCOCC3)c2)CC1 | inactive
COc1ccccc1Cn1c(-c2cccc(Cl)c2)nc(C)c(CCO)c1=O | inconclusive [inhibitor, full curve, poor fit]
C[C@@H]1C[C@@H](O)[C@@]2(CO)C(CO)=CCC[C@@H]2[C@@]12C[C@@H](c1ccoc1)OC2=O | inactive
COCCN1CCCCCC(O)c2cc(C(=O)NCCCN3CCCc4ccccc43)ccc21 (stereo not drawn) | inconclusive [inhibitor, full curve, poor fit]
COc1ccc(C(=O)N2CCC3(CC2)CC(=O)c2ccc(Cl)cc2O3)cc1 | inconclusive [inhibitor, single point]
CS(=O)(=O)N1CCCN(C(=O)CCc2c[nH]c3ccccc23)CCNC(=O)CC1c1ccccc1 (stereo not drawn) | inactive
NC(=O)Cc1c[nH]c2ncc(-c3cccc(OC(F)(F)F)c3)cc12 | inconclusive [inhibitor, full curve]
OCc1cc(CC2(NCc3ccccc3O)COC2)no1 | inconclusive [inhibitor, partial curve, poor fit]
Cc1cc(C(N)=O)c(-c2c(C)n[nH]c2C)nc1C | inconclusive [inhibitor, full curve, poor fit]

Structure (SMILES) | Potency
COc1ccc(NC(=O)CCC2CCCN(C(=O)CC3=CCCCC3)C2)cc1Cl (stereo not drawn) | inactive
O=C(Cc1cccnc1)N1CCC(N2CC(OCC3CC3)C23CCOCC3)CC1 (stereo not drawn) | inactive
COc1ccc2c(c1)C=C(CN1CCCC(O)(CN(C)C)C1)CO2 (stereo not drawn) | inconclusive [inhibitor, full curve, poor fit]
COc1ccccc1NC(=O)OCC1CCN(C(=O)OC(C)(C)C)CC1 | inconclusive [inhibitor, full curve, poor fit]
Cn1ncc2c(C(=O)NCc3ccccn3)cc(-c3cccc(C(F)(F)F)c3)nc21 | inconclusive [inhibitor, single point]
COc1ccc(C2Cn3cnc(C(=O)N4CCC(C(=O)NCCc5ccccc5)CC4)c3CO2)cc1 (stereo not drawn) | inactive
COc1ccccc1Nc1ccnc(N2CCC[C@H]2C(=O)NCc2cccnc2)n1 | inconclusive [inhibitor, single point]
CN(Cc1ccc(Cl)cc1)Cc1ccccc1C(F)(F)F | inconclusive [inhibitor, single point]
O=C(c1ccc(C(F)(F)F)cc1)N1CCC2(CC1)CC(c1cccc(C(F)(F)F)c1)=NO2 | inactive
O=[S+]1([O-])NC2(CCN(Cc3ccccc3C(F)(F)F)C2)CNc2ccccc21 (stereo not drawn) | inconclusive [inhibitor, single point]
CCNC(=O)N1CCCCCNC(=O)CC1c1ccccc1 (stereo not drawn) | inconclusive [inhibitor, single point]
O=C1CC2(CCN(C(=O)C3CCN(C(=O)c4ccccc4F)CC3)CC2)Oc2ccccc2N1 | inconclusive [inhibitor, single point]
Cc1cc(C)n(Cc2c(C(=O)NCC34CCC=C3N(C)C(=O)CC4)noc2C)n1 (stereo not drawn) | inconclusive [inhibitor, single point]
O=C(c1ccc(Cl)cc1)N1CCCC(C(=O)N2CCC(c3nc4ncccc4[nH]3)C2)C1 (stereo not drawn) | inactive
CCC(=O)NC[C@H]1Cn2c(-c3ccc4c(c3)OCO4)cnc2CO1 | inconclusive [inhibitor, partial curve]
Cc1cn(C[C@H](N)C(=O)O)c(=O)n(Cc2ccsc2C(=O)O)c1=O | inconclusive [inhibitor, single point]
Cc1csc(NC(=O)[C@@H]2C[C@@H](c3ccc(F)cc3)N([S+](=O)([O-])c3cccnc3)C2)n1 | inconclusive [inhibitor, full curve, poor fit]
O=C(N1CCN(S(=O)(=O)c2ccc3c(c2)CCC3)CC1)N1CC2CC(C1)[C@H]1CCCC(=O)N1C2 (stereo partly drawn) | inconclusive [inhibitor, partial curve, poor fit]
CC(C)N[C@H]1CC(C)(C)[C@@H]2C[C@@](C)(O)CC[C@]12CCC(=O)NCCc1c[nH]c2ccccc12 | inactive
CC(=O)N(C1CCOCC1)C1CCN(C(=O)c2ccc(C)s2)CC1 | inactive
CC(C)n1cccc1C(=O)N1CCC2(CC1)CC(c1ccccc1)CN2C (stereo not drawn) | inconclusive [inhibitor, single point]

Structure (SMILES) | Potency
C=C1CC2OC(=O)C(=C)C2C(OC(=O)/C(C)=C\C)CC2(C)OC1=CC2=O (stereo not drawn) | inconclusive [inhibitor, partial curve, poor fit]
O=C(NC1CCOCC1)C1CCCN(Cc2cccc(-c3ccc(F)cc3F)c2)C1 (stereo not drawn) | inconclusive [inhibitor, single point]
COCCNC(=O)[C@@H]1C[C@H](Oc2ccccc2)CN1C(=O)Cc1c[nH]c2ccccc12 | inconclusive [inhibitor, single point]
O=C(C=CC#Cc1cccc(NS(=O)(=O)c2ccccc2)c1)NO | inconclusive [inhibitor, single point]
CN1C(=O)CCC2(CNC(=O)Nc3ccc4c(c3)OCCO4)CCC=C12 (stereo not drawn) | inconclusive [inhibitor, single point]
O=C(Nc1ccc2ncnc(N3CCCCC3)c2c1)c1ccsc1 | inconclusive [inhibitor, single point]
O=C(NCc1ccc2c(c1)OCO2)C1CN(c2ccc(F)cc2)C(=O)N1 (stereo not drawn) | inactive
COc1cc(C2Oc3c(O)cc(CCCO)cc3C2CO)ccc1O[C@H]1O[C@H](C)[C@@H](O)[C@H](O)[C@@H]1O (stereo partly drawn) | inconclusive [inhibitor, partial curve, poor fit]
O=C(Cc1c[nH]c2ccccc12)N1CCCN(c2cc(-c3ccc(Cl)cc3)[nH]n2)CC1 | inconclusive [inhibitor, single point]
COCCNC(=O)C1COC2(CCN(C(=O)c3cccc(OC)c3)CC2)N1C(=O)c1ccc(F)cc1 (stereo not drawn) | inconclusive [inhibitor, single point]
CN(C)CCOc1cc(-c2cn[nH]c2)ccc1NC(=O)C1COc2ccccc2O1 (stereo not drawn) | inconclusive [inhibitor, partial curve, poor fit]
CC(C)(C)CN1CCOC[C@H]1c1ncc(-c2cccc(Cl)c2)[nH]1 | inactive
O=C(c1ccc(Cl)nc1)N1CCn2c(nn(-c3ccc([N+](=O)[O-])cc3)c2=O)C1 | inconclusive [inhibitor, single point]
O=C(Nc1ccc(F)cc1)C1CCN(c2nc3ncccc3o2)CC1 | inactive
Cc1noc2c(NCCN(C)C)cc(-c3ccc(F)cc3)nc12 | inactive
O=C(c1csc(-c2cccs2)n1)N1CCC2(CCCO2)CC1 | inactive
O=C(OCC(O)CO[C@@H]1O[C@H](C(=O)O)[C@@H](O)[C@H](O)[C@H]1O)c1ccccc1 (stereo partly drawn) | inconclusive [inhibitor, single point]
O=C1NCCCC[C@@H]1NCc1ccccc1OCCCCN1CCOCC1 | inconclusive [inhibitor, full curve, poor fit]
CCN1CCC2(CC1)Cc1ccccc1CN(S(=O)(=O)c1ccccc1)C2 | inactive
COCCNc1ncc(-c2ccc(O)cc2)c2c1OCC2 | inconclusive [inhibitor, partial curve, poor fit]
Cc1noc2c(NCCc3ccccn3)cc(-c3cccnc3)nc12 | inactive
